From PubChem BioAssay AID504332 (National Center for Advancing Translational Sciences (NCATS), 2011)
About 31,000 (8.9%) of roughly 350,000 compounds were called active. The shares of active, inactive and inconclusive entries below differ from those in the screen. Calls come from the whole dose curve; as a rule, active = well fitted inhibition curve with a large enough effect; inconclusive = small, poorly fitted or top-dose-only effect; inactive = no such curve, though single readings can be large or run the other way. Potencies of inconclusive entries are doubtful fits and often do not repeat.

The compounds below were run against Histone-lysine N-methyltransferase EHMT2 (Homo sapiens) (UniProt Q96KQ7) (assay: qHTS Assay for Inhibitors of Histone Lysine Methyltransferase G9a). Conditions: G9a H3K9 monomethylation, AlphaScreen, 2 h; activity, negative = inhibition: at 59 µM (top of the series) unless noted.
Outline: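 Chemiluminescent proximity detection of H3K9 monomethylation, read after 10 min bead incubation in the dark. Reaction: 20 nM G9a, 500 nM biotin-H3K9 peptide, 20 uM SAM cofactor, 2 h, room temperature, following 15 min enzyme-compound preincubation.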
% is set by controls: 0 for no effect and ±100 for the full control effect; potency is the fitted concentration of half-maximal effect; tags give direction and shape of the fitted curve.
Note: nearly all actives have a fitted effect of over 75% in size.

Chain of UniProt Q96KQ7 (Q96KQ7 whole entry, looked up): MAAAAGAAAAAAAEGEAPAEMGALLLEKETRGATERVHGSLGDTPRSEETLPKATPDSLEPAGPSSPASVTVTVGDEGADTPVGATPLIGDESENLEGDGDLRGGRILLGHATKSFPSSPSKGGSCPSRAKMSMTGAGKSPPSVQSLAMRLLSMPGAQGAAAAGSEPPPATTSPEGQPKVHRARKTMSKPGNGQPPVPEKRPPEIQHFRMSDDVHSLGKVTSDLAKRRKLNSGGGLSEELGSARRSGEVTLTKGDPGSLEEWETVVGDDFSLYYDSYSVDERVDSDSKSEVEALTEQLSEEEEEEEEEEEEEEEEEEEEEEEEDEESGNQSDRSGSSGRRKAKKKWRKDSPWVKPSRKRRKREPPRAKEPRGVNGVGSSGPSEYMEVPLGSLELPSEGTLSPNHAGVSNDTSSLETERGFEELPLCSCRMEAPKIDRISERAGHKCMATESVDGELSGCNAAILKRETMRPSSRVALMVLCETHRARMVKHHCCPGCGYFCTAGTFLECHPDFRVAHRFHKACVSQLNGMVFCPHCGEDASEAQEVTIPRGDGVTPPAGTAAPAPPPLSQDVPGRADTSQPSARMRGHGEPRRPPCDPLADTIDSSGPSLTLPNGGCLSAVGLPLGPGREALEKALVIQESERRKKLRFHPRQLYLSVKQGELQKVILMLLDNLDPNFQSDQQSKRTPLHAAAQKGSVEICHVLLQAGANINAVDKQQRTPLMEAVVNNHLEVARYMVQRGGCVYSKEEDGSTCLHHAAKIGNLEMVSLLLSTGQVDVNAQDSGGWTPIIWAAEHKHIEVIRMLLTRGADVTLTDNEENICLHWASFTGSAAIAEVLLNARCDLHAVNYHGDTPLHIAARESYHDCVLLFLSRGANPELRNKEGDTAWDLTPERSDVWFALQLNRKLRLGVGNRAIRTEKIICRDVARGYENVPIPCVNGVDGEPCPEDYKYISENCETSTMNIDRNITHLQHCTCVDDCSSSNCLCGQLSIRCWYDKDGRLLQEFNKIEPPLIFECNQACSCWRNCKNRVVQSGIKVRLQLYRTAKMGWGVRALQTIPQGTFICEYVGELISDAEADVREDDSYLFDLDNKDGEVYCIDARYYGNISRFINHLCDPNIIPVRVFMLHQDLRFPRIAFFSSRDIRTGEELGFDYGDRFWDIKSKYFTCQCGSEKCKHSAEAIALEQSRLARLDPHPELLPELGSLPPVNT

| Compound | Potency | activity, negative = inhibition |
| --- | --- | --- |
| COc1cccc(CNC(=O)CSCC(=O)Nc2cc(C)on2)c1 | inconclusive: 50.1 µM [inhibitor, partial curve] | – |
| CCCCSc1nc(CCC)cc(=O)[nH]1 | inconclusive: 39.8 µM [inhibitor, single point] | – |
| COC(=O)c1sc(NC(C)=O)c(C(=O)OC)c1C | inconclusive: 3.16 µM [inhibitor, single point] | – |
| O=c1[nH]c2cc3c(cc2cc1CN(Cc1cccnc1)Cc1nnnn1Cc1ccco1)OCCO3 | inconclusive: 10 µM [inhibitor, partial curve, poor fit] | – |
| COC(=O)c1sccc1-c1ccc(C(N)=O)o1 | active: 50.1 µM | – |
| O=c1c(C(c2ccc(Br)cc2)c2c(O)nc3n(c2=O)CCCS3)c(O)nc2n1CCCS2 | inconclusive: 79.4 µM [inhibitor, single point] | – |
| Cc1ccc(C(=O)NNC(=S)NC(=O)c2ccco2)cc1 | inconclusive: 31.6 µM [inhibitor, partial curve, poor fit] | – |
| CCOC(=O)c1c(NC(=S)NCc2ccccc2)sc2c1CCN(C(=O)OCC)C2 | inactive | – |
| Cc1ccc2c(CC(=O)N3CCN(c4cccc(Cl)c4)CC3)coc2c1C | inactive | – |
| Nc1nc2c(Cl)cc(Cl)cc2s1 | inconclusive: 89.1 µM [inhibitor, single point] | – |
| CCOc1ccccc1NC(=O)COC(=O)c1c[nH]c2ccccc12 | active: 50.1 µM | – |
| Cc1ccccc1N1CCN(Cc2ccc(Br)o2)CC1 | active: 10 µM | – |
| O=C(CSCc1ccc(Cl)cc1)NCCSCc1ccco1 | inconclusive: 50.1 µM [inhibitor, single point] | – |
| CCc1ccc(/C=C2/SC(=S)NC2=O)cc1 | inconclusive: 37.7 µM [inhibitor, single point] | – |
| CC(=O)N/C(=C\c1ccccc1)C(=O)OCC(=O)c1ccccc1 | inconclusive: 89.1 µM [inhibitor, partial curve, poor fit] | – |
| O=C(Nc1ccc(S(=O)(=O)N2CCC(c3nc4ccccc4s3)CC2)cc1)c1ccccc1F | inconclusive: 39.8 µM [inhibitor, partial curve, poor fit] | – |
| S=c1nc(C2CC2)n(-c2ccccc2)[nH]1 | inconclusive: 4.47 µM [inhibitor, single point] | – |
| CN=C1C=CC(=C(c2ccc(N(C)C)cc2)c2ccc(N(C)C)cc2)C=C1 | inconclusive: 0.794 µM [inhibitor, full curve, poor fit] | – |
| O=C(Nc1c2c(nn1-c1cccc(Cl)c1)CS(=O)(=O)C2)c1ccco1 | inconclusive: 89.1 µM [inhibitor, single point] | – |
| Cc1cccc(C(=O)Nc2ccc(N3CCC(CCN4CCOCC4)CC3)c(C(=O)O)c2)c1 | – | inactive: -6.09% [at 12.7 µM] |
| CC(C)CN(CC(C)C)C(=O)Cc1coc2ccc3ccccc3c12 | inconclusive: 20 µM [inhibitor, single point] | – |
| Cc1ccc2nc(/C(C#N)=C/c3ccc(-c4cccc(Cl)c4)o3)[nH]c2c1 | inconclusive: 35.5 µM [inhibitor, partial curve, poor fit] | – |
| CC1=C(n2nnc3ccccc32)C(c2ccccc2)C(C#N)=C(N)O1 (stereo unspecified) | inconclusive: 3.16 µM [inhibitor, partial curve, poor fit] | – |
| CCC(C)c1ccc(NC(=O)c2[nH]c(C)c(C(C)=O)c2C)cc1 (stereo unspecified) | inconclusive: 79.4 µM [inhibitor, single point] | – |

| Compound | Potency | activity, negative = inhibition |
| --- | --- | --- |
| COC(=O)C(CC(=O)c1ccc(C)cc1)n1nc(C)cc1C (stereo unspecified) | active: 79.4 µM | – |
| CCOC(=O)c1nc(Nc2cccc(C)c2)c2ccccc2n1 | inactive | – |
| CC(=O)Nc1ccccc1NC(=O)CC(C)(C)C | inconclusive: 31.6 µM [inhibitor, full curve] | – |
| CCC(=O)NC(=S)NNC(=O)c1ccc(NC(=O)c2ccccc2)cc1 | active: 7.08 µM | – |
| Cc1csc(NC(=O)C(Cc2ccccc2)n2cccc2)n1 (stereo unspecified) | active: 44.7 µM | – |
| CC1S/C(=C(\C#N)C(=O)NCc2ccco2)N(c2ccc(F)cc2)C1=O (stereo unspecified) | inconclusive: 79.4 µM [inhibitor, single point] | – |
| COc1ccc(-c2nnc(SC(=O)N3c4ccccc4Sc4ccccc43)o2)cc1 | active: 17.8 µM | – |
| CCOC(=O)c1c(C)[nH]c(C(=O)CSc2nnc(C3CC3)n2N)c1C | inconclusive: 2.51 µM [inhibitor, partial curve, poor fit] | – |
| Cc1ccc2occ(/C=N/NC(=O)c3ccccc3C)c(=O)c2c1 | inconclusive: 1.58 µM [inhibitor, full curve, poor fit] | – |
| CN(c1ccc(Cl)cc1)c1cc(=O)n(C)c2ccccc12 | inactive | – |
| CC1CCCC(C)N1C(=O)c1cc2ncc(CCCl)cn2n1 (stereo unspecified) | inconclusive: 89.1 µM [inhibitor, single point] | – |
| Cc1nn2c(-c3cccc(NC(=O)CSc4nc5ccccc5o4)c3)nnc2c2ccccc12 | active: 15.8 µM | – |
| Cc1cc(NC(=O)CN(C)S(=O)(=O)c2ccc3c(c2)CCC(=O)N3)ccc1Br | inactive | – |
| O=C(CNC(=O)Cc1ccc(Cl)cc1)NCc1ccco1 | inactive | – |
| CCN1CCN(c2nc(C)c3c(n2)CC(C)CC3=O)CC1 (stereo unspecified) | inconclusive: 79.4 µM [inhibitor, single point] | – |
| Cc1ccccc1NC(=O)CC1c2ccccc2CC(C)(C)N1C (stereo unspecified) | inconclusive: 89.1 µM [inhibitor, single point] | – |
| COc1ccc(-c2cccc(NS(=O)(=O)c3cc(C)c(Cl)cc3C)c2)nn1 | inactive | – |
| CCN(CCCNC(=O)c1nn(-c2ccc(OC)cc2)c(=O)c2c1c1ccccc1n2C)c1cccc(C)c1 | inactive | – |
| Cc1ccc(-n2ncc3c2CC(C)(C)CC3NC(=O)CCn2cncn2)cc1 (stereo unspecified) | inactive | – |
| Fc1ccccc1OCCCN1CCOCC1 | inconclusive: 12.6 µM [inhibitor, partial curve, poor fit] | – |
| COc1cccc2c(Nc3ccccc3C)cc(C)nc12 | inconclusive: 89.1 µM [inhibitor, single point] | – |
| CCCCC12CN3CC(C)(CN(C1)C3c1c(C)[nH]c(=O)[nH]c1=O)C2=O (stereo unspecified) | inconclusive: 39.8 µM [inhibitor, single point] | – |
| Nc1cnccc1C(=O)O | inconclusive: 100 µM [inhibitor, single point] | – |
| CC(=O)NC(CC(=O)OCC(=O)N1c2ccccc2NC(=O)C1(C)C)c1ccccc1 (stereo unspecified) | inconclusive: 39.8 µM [inhibitor, single point] | – |

| Compound | Potency | activity, negative = inhibition |
| --- | --- | --- |
| N/C(=N\OC(=O)c1ccc(Cl)cc1Cl)c1ccccn1 | active: 89.1 µM | – |
| COc1ccc(S(=O)(=O)Nc2nc3ccccc3s2)cc1OC | inconclusive: 25.1 µM [inhibitor, single point] | – |
| Cc1cc(=O)[nH]c(N/N=C/c2c[nH]c3ccccc23)n1 | inconclusive: 15.8 µM [inhibitor, partial curve, poor fit] | – |
| CCN(CC)c1nc2ccccc2c(N)c1-c1ccccc1 | active: 2.82 µM | – |
| CC(=O)N1N=C(c2cccs2)CC1c1cc2cc(C)ccc2nc1Cl (stereo unspecified) | – | inactive: 42.8% [at 12.7 µM] |
| Cc1ccc(Nc2nnc(SCC(=O)NCCN3C(=O)CSC3=O)s2)cc1C | active: 28.2 µM | – |
| CCCC(=O)N(C)c1nnc(-c2ccc(OC)cc2)s1 | active: 44.7 µM | – |
| Cc1noc(/C=C/c2cccs2)c1S(=O)(=O)N1CCC(C(=O)NCCCN2CCC(C)CC2)CC1 | inconclusive: 50.1 µM [inhibitor, partial curve, poor fit] | – |
| O=Cc1cccc(Oc2ccc([N+](=O)[O-])cc2[N+](=O)[O-])c1 | inconclusive: 79.4 µM [inhibitor, single point] | – |
| CC(C)(C)c1ccc(C2(C)NC(=O)NC2=O)cc1 (stereo unspecified) | inactive | – |
| CCc1cc(C(=O)Cc2cnn(-c3ccccc3)c2)c(O)cc1O | inactive | – |
| Cc1cccc(NC(=O)C2CCN(c3nccc(C)n3)CC2)c1 | inconclusive: 7.94 µM [inhibitor, partial curve, poor fit] | – |
| CC(C)N(C(=S)NCc1ccccc1)c1ccccc1 | inactive | – |
| O=C(CCCn1c(=O)[nH]c2cc(Cl)ccc2c1=O)NCCCN1CCCC1=O | inconclusive: 89.1 µM [inhibitor, partial curve, poor fit] | – |
| CCOc1ccc(N2C(=O)C3CC(C)=C(C)CC3C2=O)c([N+](=O)[O-])c1 (stereo unspecified) | inconclusive: 35.5 µM [inhibitor, single point] | – |
| CCCSc1cc(NCCOC(=O)CCC)c([N+](=O)[O-])c2nonc12 | inconclusive: 20 µM [inhibitor, single point] | – |
| CC1=C(C(=O)O)N2C(=O)C(NC(=O)c3ccn(C)n3)C2SC1 (stereo unspecified) | inconclusive: 20 µM [inhibitor, single point] | – |
| O=C(Nc1nccs1)c1ccc(Br)o1 | inconclusive: 39.8 µM [inhibitor, single point] | – |
| CCN(CC(=O)Nc1c(F)cccc1F)C(=O)c1cccc(-n2cnnn2)c1 | inconclusive: 89.1 µM [inhibitor, single point] | – |
| Cc1cc(C)c(NC(=O)CN(C)CC(=O)N(C)CC(=O)Nc2c(Cl)cccc2Cl)c(C)c1 | inconclusive: 0.891 µM [inhibitor, single point] | – |
| COC(=O)NC(=S)Nc1ccc(Oc2ccc(Cl)cc2Cl)c(Cl)c1 | inactive | – |
| CCOC(=O)c1c(-c2ccccc2)nnn1-c1nc(OC)nc(N2CCOCC2)n1 | inconclusive: 89.1 µM [inhibitor, single point] | – |
| O=C(Nc1nnc(COc2ccc(Cl)cc2)s1)c1ccco1 | active: 3.16 µM | – |
